{"source": "paper PMC4336329", "about": "(PLoS ONE, 2015)", "note": "Hit rate of the full screen: of about 310,000 compounds, about 14,000 (4.5%) showed an effect of 50% or more. Effects have a minus sign here. The list shows a part of the results.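 Note: peak tail current of the secondary pulse compared with the same well before compound.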", "data": [{"target": "human ether-à-go-go-related gene (hERG) potassium channel (human, UniProt Q12809)", "sequence (Q12809 whole entry, looked up)": "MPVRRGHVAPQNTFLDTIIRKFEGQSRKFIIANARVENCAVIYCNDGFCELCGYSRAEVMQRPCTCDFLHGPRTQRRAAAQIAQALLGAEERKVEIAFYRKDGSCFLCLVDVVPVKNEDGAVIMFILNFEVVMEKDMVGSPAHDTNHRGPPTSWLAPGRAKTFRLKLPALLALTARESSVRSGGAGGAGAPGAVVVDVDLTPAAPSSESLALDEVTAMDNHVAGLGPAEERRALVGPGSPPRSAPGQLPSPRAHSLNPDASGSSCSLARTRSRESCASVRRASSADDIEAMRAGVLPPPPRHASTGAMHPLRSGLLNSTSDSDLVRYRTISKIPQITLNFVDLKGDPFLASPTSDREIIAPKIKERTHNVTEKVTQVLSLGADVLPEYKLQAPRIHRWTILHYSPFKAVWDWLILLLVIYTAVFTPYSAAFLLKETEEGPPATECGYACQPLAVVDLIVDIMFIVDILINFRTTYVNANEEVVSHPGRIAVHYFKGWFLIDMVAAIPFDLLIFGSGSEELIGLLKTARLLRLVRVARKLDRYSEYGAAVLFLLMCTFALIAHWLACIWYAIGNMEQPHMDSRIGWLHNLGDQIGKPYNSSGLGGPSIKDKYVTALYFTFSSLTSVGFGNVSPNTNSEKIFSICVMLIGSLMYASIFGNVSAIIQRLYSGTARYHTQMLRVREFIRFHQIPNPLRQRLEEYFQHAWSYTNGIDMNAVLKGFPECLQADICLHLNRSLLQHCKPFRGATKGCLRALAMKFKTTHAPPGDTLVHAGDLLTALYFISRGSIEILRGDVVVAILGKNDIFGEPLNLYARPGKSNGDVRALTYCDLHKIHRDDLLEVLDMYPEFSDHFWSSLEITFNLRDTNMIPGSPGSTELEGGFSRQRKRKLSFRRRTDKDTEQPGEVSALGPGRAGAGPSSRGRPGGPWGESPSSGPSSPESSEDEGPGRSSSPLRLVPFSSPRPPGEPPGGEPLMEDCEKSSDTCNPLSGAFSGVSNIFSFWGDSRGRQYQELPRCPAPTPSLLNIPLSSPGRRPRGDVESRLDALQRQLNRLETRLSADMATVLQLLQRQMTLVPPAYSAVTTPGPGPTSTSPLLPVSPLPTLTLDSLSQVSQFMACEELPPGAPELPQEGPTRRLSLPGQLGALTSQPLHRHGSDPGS", "experiment": "primary screen, population patch clamp on CHO cells stably expressing hERG", "units": {"hERG current change (%, negative = inhibition) at 10uM": "%"}, "values": [{"smiles": "C=CCc1ccc(OCCn2nnc3ccccc32)c(OC)c1", "hERG current change (%, negative = inhibition) at 10uM": -12.8}, {"smiles": "Nc1c(S(=O)(=O)c2ccccc2)csc1C(=O)O", "hERG current change (%, negative = inhibition) at 10uM": 1.6}, {"smiles": "CCN(CC(=O)Nc1ccc(NC(C)=O)cc1)C(=O)c1oc2c(ccc3ccccc32)c1C", "hERG current change (%, negative = inhibition) at 10uM": 5.52}, {"smiles": "O=S(=O)(NC1CCCCC1Sc1ncccn1)c1ccccc1", "note": "(stereo not drawn)", "hERG current change (%, negative = inhibition) at 10uM": -5.72}, {"smiles": "O=C(Nc1ccccn1)c1cccc(S(=O)(=O)N2CCc3ccccc3C2)c1", "hERG current change (%, negative = inhibition) at 10uM": -15.6}, {"smiles": "Cc1ccc(C)c(Nc2c(F)c(F)c(F)c(F)c2C(=O)O)c1", "hERG current change (%, negative = inhibition) at 10uM": 17.7}, {"smiles": "CCCc1nnc(NC(=O)CCCC(=O)O)s1", "hERG current change (%, negative = inhibition) at 10uM": 1.81}, {"smiles": "CC(=O)Nc1ccc(NC(=O)CSc2nnnn2-c2ccc(F)cc2)cc1", "hERG current change (%, negative = inhibition) at 10uM": 15.5}, {"smiles": "COC(=O)c1ccc(NC(=O)c2ccco2)cc1", "hERG current change (%, negative = inhibition) at 10uM": -0.103}, {"smiles": "Cc1sc(-c2cccnc2)nc1OC(=O)C1CC1", "hERG current change (%, negative = inhibition) at 10uM": 1.39}, {"smiles": "FC(F)(F)c1ccccc1NC(=S)NC1CCN(Cc2ccccc2)CC1", "hERG current change (%, negative = inhibition) at 10uM": -12.4}, {"smiles": "COC(=O)c1ccc(C(=O)OC)c(NC(=S)N2CCOCC2)c1", "hERG current change (%, negative = inhibition) at 10uM": 14.5}, {"smiles": "COc1ccccc1-n1c(SCC(=O)N2CCCC2)nc2cccnc21", "hERG current change (%, negative = inhibition) at 10uM": 4.58}, {"smiles": "O=C(NC(c1ccccc1)c1ccccc1)c1ccc(S(=O)(=O)C(F)F)cc1", "hERG current change (%, negative = inhibition) at 10uM": 22.9}, {"smiles": "COc1ccc(CCNC(=O)COc2ccc(C)nc2[N+](=O)[O-])cc1OC", "hERG current change (%, negative = inhibition) at 10uM": 0.5}, {"smiles": "C[C@H](NC(=O)c1ccccc1F)C(=O)N1CCC2(CC1)NCCc1[nH]cnc12", "hERG current change (%, negative = inhibition) at 10uM": 19.1}, {"smiles": "Cc1ncsc1CCC(=O)N1CCCC(Nc2ccc(F)c(F)c2)C1", "note": "(stereo not drawn)", "hERG current change (%, negative = inhibition) at 10uM": -17.6}, {"smiles": "O=C(NCC(c1ccco1)N1CCc2ccccc2C1)C(=O)Nc1cc(F)ccc1F", "note": "(stereo not drawn)", "hERG current change (%, negative = inhibition) at 10uM": -52.3}, {"smiles": "CCc1ccccc1NC(=O)Cn1ccn(-c2ccc(OC)cc2)c(=O)c1=O", "hERG current change (%, negative = inhibition) at 10uM": 1.09}, {"smiles": "COc1ccc(S(=O)(=O)N(C)c2ccccc2)c2cccnc12", "hERG current change (%, negative = inhibition) at 10uM": -5.46}, {"smiles": "O=[N+]([O-])c1ccc2c(c1)OCCOCCOCCOCCOCCOCCO2", "hERG current change (%, negative = inhibition) at 10uM": -64.1}, {"smiles": "CC(=C1C(=O)c2ccccc2C1=O)N1CCN(C/C=C/c2ccccc2)CC1", "hERG current change (%, negative = inhibition) at 10uM": -55.6}, {"smiles": "O=C(CCN1CCN(c2ccccc2)CC1)Nc1ccc(Cl)cc1", "hERG current change (%, negative = inhibition) at 10uM": -17.9}, {"smiles": "Cc1c(C(=O)Nc2cccc(Cl)c2)oc2ccc(S(=O)(=O)N3CCC4(CC3)OCCO4)cc12", "hERG current change (%, negative = inhibition) at 10uM": 2.26}, {"smiles": "COc1ccc(-c2csc3ncn(-c4ccccc4OC)c(=O)c23)cc1OC", "hERG current change (%, negative = inhibition) at 10uM": -13.8}, {"smiles": "O=c1c(-c2ccc(Cl)cc2)[n+]([O-])c2ccccc2n1OCc1nc2ccccc2[nH]1", "hERG current change (%, negative = inhibition) at 10uM": -2.66}, {"smiles": "Cc1ccc(C(O)(C(=O)NNc2ccccn2)c2ccc(C)cc2)cc1", "hERG current change (%, negative = inhibition) at 10uM": -5.38}, {"smiles": "CCN(C(=O)COC(=O)C1CCN(S(=O)(=O)c2ccc3c(c2)OCCO3)CC1)C1CCCCC1", "hERG current change (%, negative = inhibition) at 10uM": -2.31}, {"smiles": "O=C(COC(=O)Cc1cccs1)NCc1ccc(F)cc1", "hERG current change (%, negative = inhibition) at 10uM": 17.8}, {"smiles": "COc1ccc(NC(=O)CSc2nnc(-c3ccoc3C)n2CCc2ccccc2)cc1", "hERG current change (%, negative = inhibition) at 10uM": -54.3}, {"smiles": "Cc1ccc(C(=O)N2CCSC2=S)cc1", "hERG current change (%, negative = inhibition) at 10uM": -1.95}, {"smiles": "COc1cccc(NC(=O)Cc2c(C(=O)O)[nH]c3ccccc23)c1", "hERG current change (%, negative = inhibition) at 10uM": -6.37}, {"smiles": "Cc1csc(CN(C)C(=O)C2CCC(=O)N(Cc3ccc(Cl)cc3)C2)n1", "note": "(stereo not drawn)", "hERG current change (%, negative = inhibition) at 10uM": -34}, {"smiles": "CN(c1ccccc1)S(=O)(=O)c1cccc(NC(=O)CN2C(=O)NC3(CCCCC3)C2=O)c1", "hERG current change (%, negative = inhibition) at 10uM": 1.3}, {"smiles": "CN(CCCN1CCCCC1)C(=O)CCc1nnc(C2CCCCC2)o1", "hERG current change (%, negative = inhibition) at 10uM": 10.8}, {"smiles": "O=C(NC1CC1)c1ccc(NS(=O)(=O)c2ccccc2)cc1", "hERG current change (%, negative = inhibition) at 10uM": 23.9}, {"smiles": "CCCCNS(=O)(=O)c1ccc2nc(-c3cccs3)cc(C(=O)NCC(OC)OC)c2c1", "hERG current change (%, negative = inhibition) at 10uM": 9.85}, {"smiles": "CC1CCCC(C)N1C(=O)COc1ccc(-c2nnco2)cc1", "note": "(stereo not drawn)", "hERG current change (%, negative = inhibition) at 10uM": 4.45}, {"smiles": "O=S(=O)(c1ccc(N2CCN(CCO)CC2)nc1)N1CCOCC1", "hERG current change (%, negative = inhibition) at 10uM": -7.59}, {"smiles": "Cc1ccc(-n2nnnc2SCC(=O)N2CCCCC2)cc1", "hERG current change (%, negative = inhibition) at 10uM": -3.3}, {"smiles": "Oc1ccc(Br)cc1/C=N/n1c(C2CCCCC2)n[nH]c1=S", "hERG current change (%, negative = inhibition) at 10uM": 18.9}, {"smiles": "CCOc1ccccc1N1CCN(CC(O)COc2ccc3c(C)cc(=O)oc3c2)CC1", "note": "(stereo not drawn)", "hERG current change (%, negative = inhibition) at 10uM": -53.1}, {"smiles": "CN1CCN(C(=O)c2ccccc2NC(=O)c2ccc(C(C)(C)C)cc2)CC1", "hERG current change (%, negative = inhibition) at 10uM": -9.21}, {"smiles": "O=C1[C@@H]2CSCN2C(=O)CN1Cc1cccc(C(F)(F)F)c1", "hERG current change (%, negative = inhibition) at 10uM": 6.76}, {"smiles": "NC(=O)C1CCN(C(=O)c2ccc3ccccc3c2)CC1", "hERG current change (%, negative = inhibition) at 10uM": -20.7}, {"smiles": "COc1cccc(NC(=O)NCc2cccn2C)c1", "hERG current change (%, negative = inhibition) at 10uM": 5.27}, {"smiles": "CC(=O)c1ccc(N2CCN(c3ncccn3)CC2)cc1", "hERG current change (%, negative = inhibition) at 10uM": -1.53}, {"smiles": "Cc1ccc(S(=O)(=O)/N=C(/Nc2ccccn2)c2ccc(Cl)cc2)cc1", "hERG current change (%, negative = inhibition) at 10uM": -18}, {"smiles": "CCSc1nnc(NC(=O)C(NC(=O)c2ccc(Cl)cc2)C(C)C)s1", "note": "(stereo not drawn)", "hERG current change (%, negative = inhibition) at 10uM": 6.2}, {"smiles": "Cc1ccc(-c2csc(NC(=O)C3=COCCO3)n2)cc1C", "hERG current change (%, negative = inhibition) at 10uM": -14.3}, {"smiles": "O=C(N/N=C/c1ccco1)c1cc(-c2ccc3ccccc3c2)n[nH]1", "hERG current change (%, negative = inhibition) at 10uM": -3.17}, {"smiles": "CN=C1S/C(=C\\c2ccc(O)c(Br)c2)C(=O)N1C", "hERG current change (%, negative = inhibition) at 10uM": 0.575}, {"smiles": "CCNc1nc(Cl)nc(NCCOc2ccc(C)cc2)n1", "hERG current change (%, negative = inhibition) at 10uM": -18.5}, {"smiles": "O=C(O)CC1=C(O)C(=O)N(c2ccccc2)C1c1ccc(Br)cc1", "note": "(stereo not drawn)", "hERG current change (%, negative = inhibition) at 10uM": 9.1}, {"smiles": "O=C(COC(=O)C1CCCCC1)Nc1cccc(Br)c1", "hERG current change (%, negative = inhibition) at 10uM": 7.75}, {"smiles": "COc1ccc(NC(=O)Cn2nnc(-c3ccccc3NC(=O)c3cccs3)n2)cc1", "hERG current change (%, negative = inhibition) at 10uM": 15.7}, {"smiles": "N#Cc1c(NC(=O)c2cccnc2)sc2c1CCC2", "hERG current change (%, negative = inhibition) at 10uM": 6.82}]}]}
